Measurements reported in paper PMC7343241.
These are yes or no findings as the source states them, for the method shown. Binding seen in cells or lysates may run through a third protein. Some entries that bind do so weakly or less than the wild type. One block for each binder: values may come before it.

Sequences of proteins named here, by UniProt entry; tags and fusion partners are left off. A change or cut given only in a name is not applied to a line headed by its entry. A line that says so, or that is headed by a name, gives the form on record, which may keep a tag or linker.
UniProt Q8TDI8: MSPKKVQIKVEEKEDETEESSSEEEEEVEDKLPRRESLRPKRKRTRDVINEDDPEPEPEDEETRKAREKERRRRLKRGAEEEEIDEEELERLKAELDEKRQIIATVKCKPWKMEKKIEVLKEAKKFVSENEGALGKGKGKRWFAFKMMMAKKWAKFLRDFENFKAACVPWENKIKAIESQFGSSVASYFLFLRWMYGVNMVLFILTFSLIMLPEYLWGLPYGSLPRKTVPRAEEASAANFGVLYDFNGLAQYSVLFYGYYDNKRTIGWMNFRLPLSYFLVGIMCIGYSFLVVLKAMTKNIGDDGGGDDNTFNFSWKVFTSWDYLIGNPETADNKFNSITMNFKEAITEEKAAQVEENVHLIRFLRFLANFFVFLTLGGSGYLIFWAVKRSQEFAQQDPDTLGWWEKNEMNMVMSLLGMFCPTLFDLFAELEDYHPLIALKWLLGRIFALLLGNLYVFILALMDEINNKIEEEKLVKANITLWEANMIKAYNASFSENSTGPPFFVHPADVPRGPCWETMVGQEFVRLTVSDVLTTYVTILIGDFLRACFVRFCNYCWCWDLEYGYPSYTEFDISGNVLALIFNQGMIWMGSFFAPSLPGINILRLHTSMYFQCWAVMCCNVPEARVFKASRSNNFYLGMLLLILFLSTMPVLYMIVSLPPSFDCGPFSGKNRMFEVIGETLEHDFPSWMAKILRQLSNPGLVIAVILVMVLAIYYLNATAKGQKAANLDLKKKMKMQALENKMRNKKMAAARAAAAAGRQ
human TMC1 Δ77–86 (FRET, CHO-K1 cells) (Q8TDI8, form named): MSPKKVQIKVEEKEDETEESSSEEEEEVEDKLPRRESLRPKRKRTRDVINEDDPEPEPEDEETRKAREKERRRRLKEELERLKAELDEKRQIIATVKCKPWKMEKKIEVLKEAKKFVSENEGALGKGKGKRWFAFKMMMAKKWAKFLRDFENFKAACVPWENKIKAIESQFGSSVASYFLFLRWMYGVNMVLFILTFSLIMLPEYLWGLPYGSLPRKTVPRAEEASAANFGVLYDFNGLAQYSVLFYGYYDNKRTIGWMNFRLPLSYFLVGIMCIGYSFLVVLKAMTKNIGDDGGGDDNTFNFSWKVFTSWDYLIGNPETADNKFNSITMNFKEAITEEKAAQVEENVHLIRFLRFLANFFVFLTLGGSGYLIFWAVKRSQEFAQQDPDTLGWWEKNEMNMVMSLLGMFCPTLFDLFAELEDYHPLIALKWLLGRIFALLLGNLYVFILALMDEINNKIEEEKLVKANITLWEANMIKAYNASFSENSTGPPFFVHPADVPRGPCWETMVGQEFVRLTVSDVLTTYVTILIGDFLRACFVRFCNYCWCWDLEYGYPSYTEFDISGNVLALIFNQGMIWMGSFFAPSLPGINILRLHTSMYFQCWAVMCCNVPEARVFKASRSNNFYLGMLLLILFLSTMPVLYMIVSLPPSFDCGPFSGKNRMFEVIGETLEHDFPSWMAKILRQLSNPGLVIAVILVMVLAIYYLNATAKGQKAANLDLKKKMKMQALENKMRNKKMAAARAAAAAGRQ

Columns and labels:
Assay in all cases: FRET or BRET; acceptor photobleaching FRET in transfected, fixed and immunostained CHO-K1 cells; donor EGFP, acceptor Alexa Fluor 555
[1] = molecular target: T1, human TMC2 (FRET, CHO-K1 cells) (human) (UniProt Q8TDI7)
T1 sequence: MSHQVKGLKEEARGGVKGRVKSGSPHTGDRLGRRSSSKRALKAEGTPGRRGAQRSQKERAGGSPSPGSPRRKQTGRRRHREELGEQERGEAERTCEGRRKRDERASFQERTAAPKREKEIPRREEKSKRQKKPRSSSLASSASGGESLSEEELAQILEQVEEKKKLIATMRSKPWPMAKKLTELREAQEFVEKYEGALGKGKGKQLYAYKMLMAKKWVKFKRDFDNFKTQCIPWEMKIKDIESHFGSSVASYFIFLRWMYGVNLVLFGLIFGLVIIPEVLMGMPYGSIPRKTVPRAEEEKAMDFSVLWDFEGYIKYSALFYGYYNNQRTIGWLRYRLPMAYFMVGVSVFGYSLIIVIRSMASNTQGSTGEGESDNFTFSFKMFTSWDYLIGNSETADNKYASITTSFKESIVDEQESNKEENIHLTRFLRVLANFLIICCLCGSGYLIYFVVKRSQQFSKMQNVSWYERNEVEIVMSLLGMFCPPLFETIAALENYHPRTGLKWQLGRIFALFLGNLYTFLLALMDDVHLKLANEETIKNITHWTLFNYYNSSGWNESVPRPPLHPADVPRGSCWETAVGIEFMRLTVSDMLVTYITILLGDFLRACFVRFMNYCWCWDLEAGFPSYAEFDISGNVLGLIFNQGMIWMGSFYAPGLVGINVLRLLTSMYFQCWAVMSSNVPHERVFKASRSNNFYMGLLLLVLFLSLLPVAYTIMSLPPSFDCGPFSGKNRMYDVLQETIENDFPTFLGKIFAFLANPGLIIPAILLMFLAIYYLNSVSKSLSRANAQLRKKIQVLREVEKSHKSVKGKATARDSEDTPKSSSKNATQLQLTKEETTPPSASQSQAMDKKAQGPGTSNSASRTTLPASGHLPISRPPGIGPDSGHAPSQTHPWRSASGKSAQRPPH

[2] = molecular target: human TMC1 (FRET, CHO-K1 cells) (human) (UniProt Q8TDI8)
[3] = molecular target: human TMC1 Δ77–86 (FRET, CHO-K1 cells) (human) (UniProt Q8TDI8)

- binding [1]: no binding
- binding [2]: no binding
B1: human CIB1 (FRET, CHO-K1 cells) (protein, UniProt Q99828 1-191)
chain: MGGSGSRLSKELLAEYQDLTFLTKQEILLAHRRFCELLPQEQRSVESSLRAQVPFEQILSLPELKANPFKERICRVFSTSPAKDSLSFEDFLDLLSVFSDTATPDIKSHYAFRIFDFDDDGTLNREDLSRLVNCLTGEGEDTRLSASEMKQLIDNILEESDIDRDGTINLSEFQHVISRSPDFASSFKIVL

- binding [3]: binds
- binding [1]: binds
- binding [2]: binds
B2: human CIB3 (FRET, CHO-K1 cells) (protein, UniProt Q96Q77 1-187)
chain: MGNKQTVFTHEQLEAYQDCTFFTRKEIMRLFYRYQDLAPQLVPLDYTTCPDVKVPYELIGSMPELKDNPFRQRIAQVFSEDGDGHMTLDNFLDMFSVMSEMAPRDLKAYYAFKIYDFNNDDYICAWDLEQTVTKLTRGGLSAEEVSLVCEKVLDEADGDHDGRLSLEDFQNMILRAPDFLSTFHIRI

- binding [1]: no binding
- binding [2]: no binding
B3: human CIB4 (FRET, CHO-K1 cells) (protein, UniProt A0PJX0 1-185)
chain: MGQCLRYQMHWEDLEEYQALTFLTRNEILCIHDTFLKLCPPGKYYKEATLTMDQVSSLPALRVNPFRDRICRVFSHKGMFSFEDVLGMASVFSEQACPSLKIEYAFRIYDFNENGFIDEEDLQRIILRLLNSDDMSEDLLMDLTNHVLSESDLDNDNMLSFSEFEHAMAKSPDFMNSFRIHFWGC
